Assay results taken from the supplement of paper PMC11417369.
± gives the standard deviation of the averaged measurements. This is one part of the list.

Tested on: PfAP2-I AP2 domain 3 (GST-tagged)
Experiment: gcPBM binding intensity (ln(normalized median fluorescence intensity)); higher = stronger DNA binding
In short: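 Binding intensity values are the highest Masliner-normalised natural-log median intensity among replicate spots of either probe orientation. The binding step lasted 1 h in 1× PBS with 1% milk, 0.2 mg/ml BSA, 0.5% salmon testes DNA and 0.03% Triton X-100, using GST-tagged P. falciparum DNA-binding domains expressed in E. coli on an Agilent 4 × 180k array of primer-extended double-stranded 36-bp intergenic genomic probes plus negative controls. Alexa488 anti-GST antibody and a 488 nm scan detected bound protein.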

Sequence | gcPBM binding intensity (ln)
AAAAAAAAAAAACACACACACAATAGTATATAAATC [CACACA_site956] | 7.87 ± 0.61
ATATGATCATAAAACACACACACAAAAAAAAAAAAA [CACACA_site1806] | 7.95 ± 0.75
CAAATAAAAACAAAACGTACGAATAAATTATTGTTA [XGTACX_site5136] | 7.54 ± 0.47
CACATATAAATATTAACACACATAATGAATTATATA [CACACA_site2741] | 7.83 ± 0.28
TATTTGATCTAAAGAGCATGCAAAAACGAACAAGAT [TGCATGCA_site136] | 8.54 ± 0.64
ATATCGTTATTTTTATGTACTAAAATATTTAATTAT [XGTACX_site3516] | 8.04 ± 0.53
TTTTTTTTTTATTGTACATGCAAAAAATTCCACACA [TGCATGCA_site279] | 8.31 ± 0.32
AGCATATTATTTTAGGTGCACTTGAAATGTGTTAAC | 10.7 ± 0.35
TTTAAATAAAATATTACACACTTAGAAAGATATATA [CACACA_site7684] | 7.41 ± 0.48
TACACCCACCCACATACACACACATACACATATATA [CACACA_site8503] | 8.35 ± 0.22
CCACTTAAAATAAAAAGTACATACAGGTGTTATACA [XGTACX_site8124] | 7.88 ± 0.34
AAATTGGTTCATCAATGTACATGTAAAATAAATCAA [XGTACX_site4795] | 7.87 ± 0.41
TAATGAGGAAATACAGCACACGTTATTACACTTTTC [CACACA_site5399] | 8.49 ± 0.52
AATAATGTTATAAATTGTACGTGTATTATTCATTAC [XGTACX_site894] | 7.84 ± 0.35
TATATTTATCCATACAAGAAAAAAAAAAAAAAAATA [CACACA_negctrl_site1328] | 7.44 ± 0.35
ATAAAATATATATATATAAAAATAAATACATAAATA [GTGCAC_negctrl_site157] | 7.51 ± 0.26
CAAACAAACAGACACACACACACACCCAAAAATGAT [CACACA_site2430] | 7.99 ± 0.39
TCAATATTAAATTATTGTACATGTATGTATATATAT [XGTACX_site3861] | 8.44 ± 0.47
TTTTTTTTTTTTTTTTTACACACTTTATTCAAACAA [CACACA_site9360] | 8.21 ± 0.73
TTTATATAAATTTTTTGTACACAAGTAAAAACGCGT [XGTACX_site2459] | 7.93 ± 0.52
ACACAAATAAATATAACATATATATTATATTATATT [CACACA_negctrl_site710] | 7.64 ± 0.2
TATTTAAAATAATGTGCAAAAGAATAAATAAATAAA [TGCATGCA_negctrl_site194] | 9.21 ± 0.3
TTGTAAGAAAGACACACACACACATATAAATATGTA [CACACA_site6516] | 7.61 ± 0.54

Sequence | gcPBM binding intensity (ln)
TTCATTTTCATATATTGTACAAAATTTTATAAGGTT [XGTACX_site4522] | 7.99 ± 0.45
TATATATATATATATACACACATACAGATATATATT [CACACA_site4629] | 9.38 ± 0.69
TATATAAGAACTTTTACACACATGAAAATGTAGATA [CACACA_site7711] | 7.52 ± 0.51
TTACTATTATTATTTTTTATTTTTATTTTATTTATT [TGCATGCA_negctrl_site269] | 7.71 ± 0.52
CACTAAAAGAAACACACACACACACCCATATATATA [CACACA_site4151] | 8.44 ± 0.75
ATATACACATATACATGTACAAATATATATACACAT [XGTACX_site2986] | 7.92 ± 0.5
TAAAATAAAAAAGTAGTACACACTTCACGATATTTT [CACACA_site3896] | 8.06 ± 0.11
TTAAAAGTAAGCAAAGTGCATATAACAAAAGTAAAG | 10.01 ± 0.092
AATATAAAACTTTAGAGTACTTATCATTAAAATATA [XGTACX_site4509] | 7.66 ± 0.47
ATTAATAATGAAAAAAAACACACGGTACATTCAAAG [CACACA_site1302] | 7.99 ± 0.74
TATTAAACTTGACACACACACACACGCATATATAAA [CACACA_site6496] | 8.07 ± 0.47
TACGGGAAAGATAAGAAACACACGGAAAATTAGACG [CACACA_site1661] | 8.12 ± 0.61
TTTTTTAATACATATGCATGTTCAAGTACGAAAAAA [TGCATGCA_site641] | 7.83 ± 0.8
ATATATTTTATACATACACACATATAAATATTTTTT [CACACA_site7780] | 7.99 ± 0.54
GGAACAAATAATATCACACATATATATATATATATA [CACACA_site5670] | 9.31 ± 0.57
TACGCAACCAAAAGTTGTACTAATTTTTTTTTTTTG [XGTACX_site7432] | 7.49 ± 0.4
TAATAAATATATTGAAGTACTTATAAAAAGCAATAT [XGTACX_site6262] | 8.38 ± 0.52
TTCATGTCCTATTAATGTACTCTACACACATATAAG [XGTACX_site899] | 7.91 ± 0.4
AAAAAAAAAAAAAAAACACACACATATATATATATA [CACACA_site8571] | 9.4 ± 0.39
TGTATATAATCGAGTGCACACACAAAAAAAAAGTGA [CACACA_site8417] | 9.93 ± 0.27
TTTATTTATTTTTGTTGTACACTTGTATATATTATT [XGTACX_site6486] | 8.22 ± 0.58
ATTTTATATACACTTTGTACTTATTTTATTCTTCTT [XGTACX_site4200] | 8.06 ± 0.88
